Substitutions are numbered along the chain they refer to. Results are given in words; binding and its absence hold for the method and conditions named. For part of these data: In cells and extracts the contact can be indirect. Some entries that bind do so weakly or less than the wild type. For part of these data: Sequences can lack the tags named with a protein.
Columns and labels:
[1] = target: GFP-BLM (EGFP-C1-GFP-BLM) (UniProt P54132); test: co-IP; GFP-Trap co-IP from whole-cell extracts of HEK293 cells transiently expressing GFP constructs; for Figure 5F cells transfected with siCTRL or siSLX4; lysis buffer 50 mM HEPES-KOH pH 8.0, 100 mM KCl, 2 mM EDTA, 0.5% NP-40 substitute, 4°C
[2] = target: GFP-SLX4IP (pcDNA5-FRT/TO-GFP-SLX4IP-FL) (human) (UniProt Q5VYV7); test: co-IP; GFP-Trap co-IP, lysates treated with Benzonase (1000 U/ml, lysis buffer without EDTA, with 10 mM magnesium chloride, 1 h 45 min in the cold) or not; wild type and SIM mutants of SLX4IP (Figure S7D)
[3] = target: GFP-SLX4IP (pcDNA5-FRT/TO-GFP-SLX4IP-FL) (human) (UniProt Q5VYV7); test: co-IP; GFP-Trap co-IP from whole-cell extracts of HEK293 cells transiently expressing GFP constructs; for Figure 5F cells transfected with siCTRL or siSLX4; lysis buffer 50 mM HEPES-KOH pH 8.0, 100 mM KCl, 2 mM EDTA, 0.5% NP-40 substitute, 4°C
[4] = target: GFP-SLX4IP (pcDNA5-FRT/TO-GFP-SLX4IP-FL) (human) (UniProt Q5VYV7); test: co-IP; GFP-SLX4IP precipitated from siCTRL and siSLX4 U2OS cells (Figure S7E)
[5] = target: recombinant Flag-BLM (UniProt P54132); test: co-IP; recombinant Flag-BLM and SLX4IP mixed, BLM immunoprecipitation, normal IgGs as negative control; the text calls it a pull-down assay; both purified
[6] = target: GFP-SLX4IP (pcDNA5-FRT/TO-GFP-SLX4IP-FL) (human) (UniProt Q5VYV7); test: co-IP; immunoprecipitation of GFP-SLX4IP (GFP-Trap_MA) from U2OS Flp-In T-REx cells with stably integrated GFP-SLX4IP, doxycycline-induced, synchronised in G1 (lovastatin), S (double thymidine), G2 (RO-3306) or M (nocodazole)
[7] = target: T1, GFP-SLX4IP V115K/V116K (human) (UniProt Q5VYV7); test: co-IP; SLX4IP point mutants L16K/V17K and V115K/V116K, blots for SLX4, SLX1, MUS81 and XPF; cell line not told in the text shown (Figure S3D)
T1 sequence: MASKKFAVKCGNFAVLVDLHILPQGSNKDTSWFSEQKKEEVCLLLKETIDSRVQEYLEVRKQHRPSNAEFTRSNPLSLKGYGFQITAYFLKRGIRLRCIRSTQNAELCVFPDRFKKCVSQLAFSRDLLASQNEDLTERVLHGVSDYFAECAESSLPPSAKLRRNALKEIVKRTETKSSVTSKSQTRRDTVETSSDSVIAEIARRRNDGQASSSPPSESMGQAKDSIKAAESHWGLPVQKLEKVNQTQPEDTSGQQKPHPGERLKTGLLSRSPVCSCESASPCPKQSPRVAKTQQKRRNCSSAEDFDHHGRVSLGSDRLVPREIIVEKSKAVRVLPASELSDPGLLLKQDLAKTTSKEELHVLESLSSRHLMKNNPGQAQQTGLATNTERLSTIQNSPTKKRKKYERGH

Amino acid sequences for entries named in this document (tags omitted).
UniProt P54132: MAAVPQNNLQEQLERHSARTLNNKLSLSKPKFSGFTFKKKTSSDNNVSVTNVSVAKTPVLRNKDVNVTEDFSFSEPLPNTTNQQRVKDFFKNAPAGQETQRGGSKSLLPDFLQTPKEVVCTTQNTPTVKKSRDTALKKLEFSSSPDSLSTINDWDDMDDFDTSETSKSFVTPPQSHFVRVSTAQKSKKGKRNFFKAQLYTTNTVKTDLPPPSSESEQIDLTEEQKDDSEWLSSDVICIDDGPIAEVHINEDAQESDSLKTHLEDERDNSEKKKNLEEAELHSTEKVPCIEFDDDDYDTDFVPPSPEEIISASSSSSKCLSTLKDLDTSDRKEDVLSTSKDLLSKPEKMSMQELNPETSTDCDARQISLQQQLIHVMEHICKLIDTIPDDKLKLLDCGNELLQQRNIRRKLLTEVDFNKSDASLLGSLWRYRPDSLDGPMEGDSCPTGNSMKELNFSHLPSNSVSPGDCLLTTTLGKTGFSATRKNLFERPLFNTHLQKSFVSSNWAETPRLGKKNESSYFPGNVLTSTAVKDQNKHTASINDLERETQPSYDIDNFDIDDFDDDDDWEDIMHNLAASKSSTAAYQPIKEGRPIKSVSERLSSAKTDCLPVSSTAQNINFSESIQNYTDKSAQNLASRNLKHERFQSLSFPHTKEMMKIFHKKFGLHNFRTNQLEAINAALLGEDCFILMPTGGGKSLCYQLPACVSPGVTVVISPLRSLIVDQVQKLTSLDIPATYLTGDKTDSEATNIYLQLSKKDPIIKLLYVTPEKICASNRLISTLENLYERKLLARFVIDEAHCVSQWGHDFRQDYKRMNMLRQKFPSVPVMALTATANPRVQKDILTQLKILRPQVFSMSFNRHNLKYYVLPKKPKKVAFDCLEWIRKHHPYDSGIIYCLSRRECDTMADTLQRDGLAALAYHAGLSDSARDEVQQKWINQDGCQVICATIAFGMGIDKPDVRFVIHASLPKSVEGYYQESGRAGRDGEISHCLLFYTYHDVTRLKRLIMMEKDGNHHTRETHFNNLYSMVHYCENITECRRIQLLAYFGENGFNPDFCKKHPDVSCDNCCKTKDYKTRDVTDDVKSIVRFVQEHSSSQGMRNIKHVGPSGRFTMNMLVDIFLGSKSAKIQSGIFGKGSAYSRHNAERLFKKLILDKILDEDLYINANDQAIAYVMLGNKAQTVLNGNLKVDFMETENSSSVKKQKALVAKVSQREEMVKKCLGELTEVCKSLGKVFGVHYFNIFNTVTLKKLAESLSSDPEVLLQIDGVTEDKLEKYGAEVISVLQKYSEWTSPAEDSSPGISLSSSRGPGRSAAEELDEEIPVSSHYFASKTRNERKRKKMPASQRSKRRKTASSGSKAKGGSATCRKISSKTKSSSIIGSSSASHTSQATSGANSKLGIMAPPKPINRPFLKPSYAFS

[8] = target: T2, GFP-SLX4IP L16K/V17K (human) (UniProt Q5VYV7); test: as above
T2 sequence: T1 sequence with L16K, V17K, K115V, K116V

endogenous SLX4IP (from UniProt Q5VYV7 1-408)
binding [1]: binds

endogenous BLM (from UniProt P54132 1-1417)
binding [2]: binds | binding [3]: binds | binding [4]: binds

recombinant SLX4IP (from UniProt Q5VYV7 1-408)
binding [5]: binds

B1: SLX1 (protein, UniProt Q9BQ83 1-275)
chain: MGPAGVAARPGRFFGVYLLYCLNPRYRGRVYVGFTVNTARRVQQHNGGRKKGGAWRTSGRGPWEMVLVVHGFPSSVAALRFEWAWQHPHASRRLAHVGPRLRGETAFAFHLRVLAHMLRAPPWARLPLTLRWVRPDLRQDLCLPPPPHVPLAFGPPPPQAPAPRRRAGPFDDAEPEPDQGDPGACCSLCAQTIQDEEGPLCCPHPGCLLRAHVICLAEEFLQEEPGQLLPLEGQCPCCEKSLLWGDLIWLCQMDTEKEVEDSELEEAHWTDLLET
binding [6]: binds | binding [7]: no binding | binding [8]: no binding

B2: MUS81 (protein, UniProt Q96NY9 1-551)
chain: MAAPVRLGRKRPLPACPNPLFVRWLTEWRDEATRSRRRTRFVFQKALRSLRRYPLPLRSGKEAKILQHFGDGLCRMLDERLQRHRTSGGDHAPDSPSGENSPAPQGRLAEVQDSSMPVPAQPKAGGSGSYWPARHSGARVILLVLYREHLNPNGHHFLTKEELLQRCAQKSPRVAPGSARPWPALRSLLHRNLVLRTHQPARYSLTPEGLELAQKLAESEGLSLLNVGIGPKEPPGEETAVPGAASAELASEAGVQQQPLELRPGEYRVLLCVDIGETRGGGHRPELLRELQRLHVTHTVRKLHVGDFVWVAQETNPRDPANPGELVLDHIVERKRLDDLCSSIIDGRFREQKFRLKRCGLERRVYLVEEHGSVHNLSLPESTLLQAVTNTQVIDGFFVKRTADIKESAAYLALLTRGLQRLYQGHTLRSRPWGTPGNPESGAMTSPNPLCSLLTFSDFNAGAIKNKAQSVREVFARQLMQVRGVSGEKAAALVDRYSTPASLLAAYDACATPKEQETLLSTIKCGRLQRNLGPALSRTLSQLYCSYGPLT
binding [6]: binds

From paper PMC6863466
